{
  "source": "the supplement of paper PMC7826260",
  "note": "The list shows a part of the results. Cleavage of a single-stranded DNA pool by Rep nickase domains was read by sequencing (1 h at 37 °C, 3 µM enzyme); the outer parts of the 90-letter strands are left off. Uncut reads are compared with the no-enzyme pool on a log2 scale; more negative means more cut, near 0 not cut, and no call is made. Shares of all reads are compared; values above 0 arise when much of the pool is cut.",
  "data": [
    {"test_system": "T1, Rep nickase domain of maize striate mosaic virus", "T1 sequence (residues 1-117 of Rep, tag left off)": "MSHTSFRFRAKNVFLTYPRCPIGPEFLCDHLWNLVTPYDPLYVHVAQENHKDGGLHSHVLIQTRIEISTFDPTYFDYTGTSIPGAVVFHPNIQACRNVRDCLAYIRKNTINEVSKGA", "assay": "uncleaved DNA left, log2 of reads against the no-enzyme library (log2 ratio); higher = less cleavage (more negative = more Rep cleavage of the k-mer); sequences stand for … in CTCGTCCG…ACCGGAGA", "description": "(§1)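 A pool of 90-nt single-stranded DNAs with seven random bases just before the constant AC of the nick site (name = the seven bases) was cut by 3 µM recombinant His6-SUMO-tagged Rep nickase domain (300 nM DNA, 50 mM HEPES pH 8.0, 50 mM NaCl, 1 mM MnCl2, 1 h, 37 °C, three replicates). Uncut DNA was amplified and sequenced.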", "values": [
      {"sequence": "TTAATCT", "uncleaved DNA left (log2)": -0.136},
      {"sequence": "ATCCGAG", "uncleaved DNA left (log2)": 1.46},
      {"sequence": "GGTAGGG", "uncleaved DNA left (log2)": 0.31},
      {"sequence": "CCCGGGT", "uncleaved DNA left (log2)": 1.28},
      {"sequence": "TTTGACC", "uncleaved DNA left (log2)": 0.23},
      {"sequence": "GGGTCAG", "uncleaved DNA left (log2)": 2.21},
      {"sequence": "CCAAATT", "uncleaved DNA left (log2)": -0.689},
      {"sequence": "AGATGCC", "uncleaved DNA left (log2)": -0.572},
      {"sequence": "CCAACGA", "uncleaved DNA left (log2)": -0.939},
      {"sequence": "AATCTGG", "uncleaved DNA left (log2)": -0.159},
      {"sequence": "TCCACAT", "uncleaved DNA left (log2)": 0.484},
      {"sequence": "CCTGCCT", "uncleaved DNA left (log2)": -0.209},
      {"sequence": "GCGCACT", "uncleaved DNA left (log2)": 1.26},
      {"sequence": "GGGAGGT", "uncleaved DNA left (log2)": 2.29},
      {"sequence": "TTCGTTG", "uncleaved DNA left (log2)": -0.936},
      {"sequence": "CATAAAT", "uncleaved DNA left (log2)": -0.637},
      {"sequence": "ATCCAAT", "uncleaved DNA left (log2)": -0.557},
      {"sequence": "TCACCAG", "uncleaved DNA left (log2)": -1.14},
      {"sequence": "GGGTCGC", "uncleaved DNA left (log2)": 2.12},
      {"sequence": "CACAAGA", "uncleaved DNA left (log2)": -1.07}
    ]},
    {"test_system": "T2, Rep nickase domain of porcine circovirus 2", "T2 sequence (residues 2-116 of Rep, tag left off)": "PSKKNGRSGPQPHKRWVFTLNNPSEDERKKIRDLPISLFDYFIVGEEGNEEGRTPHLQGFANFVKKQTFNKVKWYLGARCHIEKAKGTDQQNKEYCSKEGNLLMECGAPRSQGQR", "assay": "uncleaved DNA left, log2 of reads against the no-enzyme library (log2 ratio); higher = less cleavage (more negative = more Rep cleavage of the k-mer); sequences stand for … in CTCGTCCG…ACCGGAGA", "description": "as §1", "values": [
      {"sequence": "ACATCTG", "uncleaved DNA left (log2)": 0.0504},
      {"sequence": "GGGAAGA", "uncleaved DNA left (log2)": 0.309},
      {"sequence": "CACATAG", "uncleaved DNA left (log2)": 0.227},
      {"sequence": "TCGATGG", "uncleaved DNA left (log2)": 0.0502},
      {"sequence": "GTGACCT", "uncleaved DNA left (log2)": 0.0142},
      {"sequence": "ATATCAC", "uncleaved DNA left (log2)": 0.0989},
      {"sequence": "CCCTCTG", "uncleaved DNA left (log2)": -0.0577},
      {"sequence": "GTAATAA", "uncleaved DNA left (log2)": 0.00118},
      {"sequence": "CAAAAGA", "uncleaved DNA left (log2)": 0.0984},
      {"sequence": "GGCTGCT", "uncleaved DNA left (log2)": -1.6},
      {"sequence": "TGCAATG", "uncleaved DNA left (log2)": 0.0285},
      {"sequence": "GCATACC", "uncleaved DNA left (log2)": -0.434},
      {"sequence": "TACACCT", "uncleaved DNA left (log2)": -1.33},
      {"sequence": "CGTGACA", "uncleaved DNA left (log2)": 0.0102},
      {"sequence": "ACCTGTA", "uncleaved DNA left (log2)": -0.322},
      {"sequence": "AGTACTC", "uncleaved DNA left (log2)": -0.0938},
      {"sequence": "CATGCCG", "uncleaved DNA left (log2)": 0.0733},
      {"sequence": "GGTGCCC", "uncleaved DNA left (log2)": -0.00411},
      {"sequence": "TTTTAGA", "uncleaved DNA left (log2)": 0.123},
      {"sequence": "TCAGCCC", "uncleaved DNA left (log2)": -0.0945},
      {"sequence": "TTAATCT", "uncleaved DNA left (log2)": -0.167},
      {"sequence": "ATCCGAG", "uncleaved DNA left (log2)": 0.139},
      {"sequence": "GGTAGGG", "uncleaved DNA left (log2)": 0.0753},
      {"sequence": "CCCGGGT", "uncleaved DNA left (log2)": 0.0957},
      {"sequence": "TTTGACC", "uncleaved DNA left (log2)": -0.0309},
      {"sequence": "GGGTCAG", "uncleaved DNA left (log2)": 0.136},
      {"sequence": "CCAAATT", "uncleaved DNA left (log2)": -0.361},
      {"sequence": "AGATGCC", "uncleaved DNA left (log2)": 0.1},
      {"sequence": "CCAACGA", "uncleaved DNA left (log2)": 0.167},
      {"sequence": "AATCTGG", "uncleaved DNA left (log2)": 0.298},
      {"sequence": "TCCACAT", "uncleaved DNA left (log2)": 0.124},
      {"sequence": "CCTGCCT", "uncleaved DNA left (log2)": -0.0671},
      {"sequence": "GCGCACT", "uncleaved DNA left (log2)": 0.12},
      {"sequence": "GGGAGGT", "uncleaved DNA left (log2)": 0.217},
      {"sequence": "TTCGTTG", "uncleaved DNA left (log2)": 0.00188},
      {"sequence": "CATAAAT", "uncleaved DNA left (log2)": -1.17},
      {"sequence": "ATCCAAT", "uncleaved DNA left (log2)": -0.416},
      {"sequence": "TCACCAG", "uncleaved DNA left (log2)": -0.0564},
      {"sequence": "GGGTCGC", "uncleaved DNA left (log2)": 0.125},
      {"sequence": "CACAAGA", "uncleaved DNA left (log2)": 0.139}
    ]},
    {"test_system": "T3, Rep nickase domain of tomato golden mosaic virus", "T3 sequence (residues 1-124 of Rep, tag left off)": "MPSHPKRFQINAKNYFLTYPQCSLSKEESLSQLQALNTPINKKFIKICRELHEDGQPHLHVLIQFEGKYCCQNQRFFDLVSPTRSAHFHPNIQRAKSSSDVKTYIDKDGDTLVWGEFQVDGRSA", "assay": "uncleaved DNA left, log2 of reads against the no-enzyme library (log2 ratio); higher = less cleavage (more negative = more Rep cleavage of the k-mer); sequences stand for … in CTCGTCCG…ACCGGAGA", "description": "as §1", "values": [
      {"sequence": "ACATCTG", "uncleaved DNA left (log2)": -0.0659},
      {"sequence": "GGGAAGA", "uncleaved DNA left (log2)": 0.0553},
      {"sequence": "CACATAG", "uncleaved DNA left (log2)": 0.115},
      {"sequence": "TCGATGG", "uncleaved DNA left (log2)": 0.121},
      {"sequence": "GTGACCT", "uncleaved DNA left (log2)": 0.0128},
      {"sequence": "ATATCAC", "uncleaved DNA left (log2)": 0.0796},
      {"sequence": "CCCTCTG", "uncleaved DNA left (log2)": -0.131},
      {"sequence": "GTAATAA", "uncleaved DNA left (log2)": -0.0346},
      {"sequence": "CAAAAGA", "uncleaved DNA left (log2)": 0.0238},
      {"sequence": "GGCTGCT", "uncleaved DNA left (log2)": 0.0537},
      {"sequence": "TGCAATG", "uncleaved DNA left (log2)": 0.186},
      {"sequence": "GCATACC", "uncleaved DNA left (log2)": -0.014},
      {"sequence": "TACACCT", "uncleaved DNA left (log2)": -0.0649},
      {"sequence": "CGTGACA", "uncleaved DNA left (log2)": -0.181},
      {"sequence": "ACCTGTA", "uncleaved DNA left (log2)": -0.104},
      {"sequence": "AGTACTC", "uncleaved DNA left (log2)": -0.0917},
      {"sequence": "CATGCCG", "uncleaved DNA left (log2)": -0.00421},
      {"sequence": "GGTGCCC", "uncleaved DNA left (log2)": -0.0278},
      {"sequence": "TTTTAGA", "uncleaved DNA left (log2)": 0.141},
      {"sequence": "TCAGCCC", "uncleaved DNA left (log2)": -0.042},
      {"sequence": "TTAATCT", "uncleaved DNA left (log2)": -0.00214},
      {"sequence": "ATCCGAG", "uncleaved DNA left (log2)": 0.0349},
      {"sequence": "GGTAGGG", "uncleaved DNA left (log2)": 0.000228},
      {"sequence": "CCCGGGT", "uncleaved DNA left (log2)": 0.0371},
      {"sequence": "TTTGACC", "uncleaved DNA left (log2)": -0.0225},
      {"sequence": "GGGTCAG", "uncleaved DNA left (log2)": 0.104},
      {"sequence": "CCAAATT", "uncleaved DNA left (log2)": -0.233},
      {"sequence": "AGATGCC", "uncleaved DNA left (log2)": -0.00213},
      {"sequence": "CCAACGA", "uncleaved DNA left (log2)": 0.108},
      {"sequence": "AATCTGG", "uncleaved DNA left (log2)": 0.238},
      {"sequence": "TCCACAT", "uncleaved DNA left (log2)": -0.0647},
      {"sequence": "CCTGCCT", "uncleaved DNA left (log2)": 0.0678},
      {"sequence": "GCGCACT", "uncleaved DNA left (log2)": -0.122},
      {"sequence": "GGGAGGT", "uncleaved DNA left (log2)": 0.0369},
      {"sequence": "TTCGTTG", "uncleaved DNA left (log2)": -0.125},
      {"sequence": "CATAAAT", "uncleaved DNA left (log2)": 0.091},
      {"sequence": "ATCCAAT", "uncleaved DNA left (log2)": -0.00514},
      {"sequence": "TCACCAG", "uncleaved DNA left (log2)": -0.047},
      {"sequence": "GGGTCGC", "uncleaved DNA left (log2)": 0.0134},
      {"sequence": "CACAAGA", "uncleaved DNA left (log2)": 0.00904}
    ]}
  ]
}
